Measured values: PMC4336329 (PLoS ONE, 2015)
In all, about 310,000 compounds went through this assay and about 14,000 (4.5%) showed an effect of 50% or more. The effect is printed as a negative number. Some of the results follow. Where a SMILES comes first, the peptide text is derived from it. The star is where a group is joined. Boc = CC(C)(C)OC(=O)*

The compounds below were run against human ether-à-go-go-related gene (hERG) potassium channel (human, UniProt Q12809) (assay: primary screen, population patch clamp on CHO cells stably expressing hERG).
Sequence of human ether-à-go-go-related gene (hERG) potassium channel (Q12809 whole entry, looked up): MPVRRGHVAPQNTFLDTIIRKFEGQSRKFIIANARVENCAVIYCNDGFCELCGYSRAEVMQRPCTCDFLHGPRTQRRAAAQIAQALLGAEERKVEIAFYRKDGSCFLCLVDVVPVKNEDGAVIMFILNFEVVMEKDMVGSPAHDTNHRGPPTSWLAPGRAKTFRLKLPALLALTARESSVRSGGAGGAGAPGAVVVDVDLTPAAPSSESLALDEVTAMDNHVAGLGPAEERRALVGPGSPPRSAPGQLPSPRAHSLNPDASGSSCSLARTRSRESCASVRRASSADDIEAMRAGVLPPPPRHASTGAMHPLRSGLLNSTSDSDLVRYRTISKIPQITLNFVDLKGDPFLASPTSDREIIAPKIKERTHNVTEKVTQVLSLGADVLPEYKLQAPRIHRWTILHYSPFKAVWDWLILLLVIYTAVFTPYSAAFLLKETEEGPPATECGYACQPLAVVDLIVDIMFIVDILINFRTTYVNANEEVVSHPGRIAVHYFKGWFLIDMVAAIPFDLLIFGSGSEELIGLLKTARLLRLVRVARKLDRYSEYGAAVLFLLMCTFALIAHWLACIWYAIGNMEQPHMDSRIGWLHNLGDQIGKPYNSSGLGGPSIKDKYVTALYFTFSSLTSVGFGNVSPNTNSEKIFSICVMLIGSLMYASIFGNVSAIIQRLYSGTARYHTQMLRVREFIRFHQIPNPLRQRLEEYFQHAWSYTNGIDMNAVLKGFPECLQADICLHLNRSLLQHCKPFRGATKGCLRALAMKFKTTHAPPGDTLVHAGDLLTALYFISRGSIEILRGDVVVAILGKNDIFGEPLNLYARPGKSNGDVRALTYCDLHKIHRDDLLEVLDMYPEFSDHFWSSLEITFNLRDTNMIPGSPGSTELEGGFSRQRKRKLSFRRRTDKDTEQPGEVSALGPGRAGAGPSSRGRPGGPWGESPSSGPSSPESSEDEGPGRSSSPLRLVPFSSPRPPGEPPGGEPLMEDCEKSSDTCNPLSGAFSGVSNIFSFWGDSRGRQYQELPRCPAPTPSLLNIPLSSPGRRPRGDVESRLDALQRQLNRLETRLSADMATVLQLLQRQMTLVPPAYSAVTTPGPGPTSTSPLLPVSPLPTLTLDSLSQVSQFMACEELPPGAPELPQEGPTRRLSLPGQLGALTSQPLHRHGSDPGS
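Note: peak tail current of the secondary pulse compared with the same well before compound.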

Row | Compound | hERG current change (%, negative = inhibition) at 10uM
1 | O=C(NCc1cccs1)c1cc(-c2ccccc2)on1 | -1.22%
2 | c1coc(CNc2nc3nonc3nc2NCc2ccco2)c1 | -25.4%
3 | Cl.c1ccc2c(NCC3CCCO3)nc(N3CCOCC3)nc2c1 (stereo not shown) | -49.5%
4 | CC(=O)[C@@]1(O)CCC2C3C=CC4=CC(=O)CC[C@]4(C)C3CC[C@@]21C (stereo partly shown) | 5.47%
5 | COc1ccc(N2CCN(CCNC(=O)Nc3cc(Cl)ccc3OC)CC2)cc1 | 3.23%
6 | CSCCC(NC(=O)OC(C)(C)C)C(=O)NC(C(=O)NC(CC(C)C)C(N)=O)C(C)C (stereo not drawn) (Boc-Met-Val-Leu-NH2; configuration not given here) | 6.66%
7 | COc1cc(NC(=O)CSc2nc3ccccc3cc2Cc2ccccc2)cc(OC)c1 | -5.88%
8 | O=C(CCN1C(=O)/C(=C\c2cccs2)SC1=S)NC1=NCCS1 | -1.18%
9 | CCOc1ccc(/C=N/NC(=O)c2[nH]c3ccc(C)cc3c2C)cc1 | 12.4%
10 | CC(C)OC(=O)C(=O)NNc1ccccc1 | 11.3%
11 | COC(=O)c1ccccc1NC(=O)Nc1cnccn1 | 26.5%
12 | CC(C)(C)OC(=O)N[C@@H](/C=C/c1ccccc1)C(=O)OC(C)(C)C | -11.2%
13 | NC(=O)CCCC1=NS(=O)(=O)c2ccccc2N1 | 11.5%
14 | O=C(COc1ccc(Br)cc1)Nc1ccc([N+](=O)[O-])cn1 | -19.7%
15 | Cn1c2ccccc2c2nnc(SCc3ccc4nonc4c3)nc21 | 7.92%
16 | CCCc1cc(=O)oc2c3c(cc(OCC(=O)NCc4ccncc4)c12)OC(C)(C)CC3 | -65%
17 | Cc1cc(C(=O)N/N=C(\CCC(=O)O)c2cccs2)c2ccccc2n1 | 17.4%
18 | CCOc1ccc(NC(=O)CCN2C(=S)NC(C)(C)CC2C)cc1 (stereo not shown) | 22.5%
19 | CCN(CC)C(=O)c1cn(CCC#N)nc1-c1ccc2ccccc2c1 | 8.84%
20 | CCOC(=O)C(Oc1ccc(=O)[nH]n1)C(C)=O (stereo not shown) | -6.6%
21 | O=C(OCCCc1cc2ccccc2c(=O)o1)c1ccco1 | -16.2%
22 | CCN(CC)S(=O)(=O)c1ccc2c(c1)nc(CCC(=O)OCc1c(C)noc1C)n2C | -12.4%

Row | Compound | hERG current change (%, negative = inhibition) at 10uM
23 | Cc1cccc(N(C)C(=O)c2cc(S(=O)(=O)N3CCCCC3)c[nH]2)c1 | 6.97%
24 | Cn1nccc1NC(=O)Nc1ccc(Cl)cc1 | 20.6%
25 | O=C(c1cccs1)N1CCOCC1 | 6.52%
26 | Cc1onc(-c2c(Cl)cccc2Cl)c1C(=O)c1c[nH]c(C(=O)NCCCN2CCOCC2)c1 | -7.65%
27 | COc1cccc(OC)c1NC(=O)CN1CCN(C)CC1.O=C(O)C(=O)O | 16%
28 | S=c1[nH]nc(-c2ccccc2)n1C1C=CCCC1 (stereo not shown) | 6.32%
29 | Cc1cc(C)n(-c2nnc(NC(C)(C)C)nn2)n1 | 10.7%
30 | CCCCN(C(=O)c1cc(=O)[nH]c2ccccc12)c1c(N)n(CCCC)c(=O)[nH]c1=O | 18.5%
31 | COCCN(C(=O)c1cc2c(s1)CCCCC2)c1c(N)n(CC(C)C)c(=O)[nH]c1=O | 3.04%
32 | CCN(C(=O)COC(=O)c1ccccc1NCCO)C1CCS(=O)(=O)C1 (stereo not shown) | -5.97%
33 | Fc1ccc(-n2c(CN3CCCCC3)n[nH]c2=S)cc1 | 26.6%
34 | CCC(C(=O)NCc1ccco1)n1nc(C)n2c(cc3occc32)c1=O (stereo not shown) | 12%
35 | O=C(CNS(=O)(=O)c1cccc(Br)c1)NCCCc1ccccc1 | 1.04%
36 | Cc1ccc(NS(=O)(=O)c2ccc(CCC(=O)N3CCCC3)cc2)cc1 | 11%
37 | CCc1c(C)nc(N2CCN(c3cccc(OC)c3)CC2)[nH]c1=O | 9.29%
38 | CCNS(=O)(=O)c1ccc(CCC(=O)NCCc2ccc(OC)cc2)cc1 | -5.89%
39 | Cc1ccc(C(=O)Nc2ccc([N+](=O)[O-])cn2)o1 | -20.4%
40 | CNc1snc(C)c1C(=O)OC(C)C(=O)Nc1cccc(OC)c1 (stereo not shown) | -6.5%
41 | CCOC(=O)C1(c2ccccc2)NC(c2ccccc2C)C2C(=O)N(c3ccc4c(c3)OCO4)C(=O)C21 (stereo not shown) | -26.6%
42 | CCn1c(=O)cc(OCC(=O)NCCCN2CCN(c3cccc(Cl)c3)CC2)c2ccccc21 | -61.1%
43 | Cc1cccc(NC(=O)c2ccc(N3C(=O)C4CCCCC4C3=O)cc2)c1C (stereo not shown) | 1.8%
44 | Cc1cccc(N(C)c2cc(C)nc3nc(C)nn23)c1 | -15.8%

Row | Compound | hERG current change (%, negative = inhibition) at 10uM
45 | COc1ccc(OC)c(Nc2c3c(nc4ccccc24)CCC3)c1 | -67.8%
46 | O=C(NCCc1ccc(Cl)cc1)c1ccc(CNc2c(N3CCOCC3)c(=O)c2=O)cc1 | 25.7%
47 | CN(C)S(=O)(=O)c1cccc(C(=O)NCc2ccco2)c1 | 10.7%
48 | C=CCOC(=O)C(C#N)c1nc2ccccc2nc1N1CCN(c2ccccc2OC)CC1 (stereo not shown) | 6.56%
49 | O=C(CCSc1ccccc1)Nc1ncccn1 | 14.9%
50 | COc1ccc(C)cc1NC(=O)CCNC(=O)Cn1cnc2ccccc2c1=O | 10.2%
51 | COc1ccc(-n2nc3c(c2NC(=O)C(C)Cl)CSC3)cc1 (stereo not shown) | 13.2%
52 | O=C(Nc1ccc(N2CCCC2)cc1)c1ccc(Br)cc1 | 21.5%
53 | CCOC(=O)c1cc2c(=O)n3cccc(C)c3nc2n(CC(C)C)c1=NC(=O)c1ccco1 | -69.7%
54 | Cc1ccc(CC(=O)NCCCc2ccccc2)cc1 | -6.1%
55 | CC1(C)CC2(CC(C)(C(=O)CSc3nc4ccccc4s3)OC2=O)C(=O)O1 (stereo not shown) | 1.98%
56 | CCc1ccc(Nc2ccc(C(N)=O)cc2[N+](=O)[O-])cc1 | 8.56%
57 | Cc1nn(C)c(C)c1C1C(C#N)=C(N)OC2=C1C(=O)CCC2 (stereo not shown) | -12%
58 | COc1ccc2nc(SCC(=O)NCC3CCCO3)c(C#N)cc2c1 (stereo not shown) | 26.8%
59 | CN1c2ccccc2Oc2ccccc21.[O-][Cl+3]([O-])([O-])[O-] | 1.92%
60 | O=C(O)c1ccccc1S(=O)(=O)c1ccccc1CO | 10.3%
61 | CCCNC(=O)CN1C(=O)NC(Cc2c[nH]c3ccccc23)C1=O (stereo not shown) | 12.9%
62 | CCOc1cc(C=O)cc(Cl)c1OCC(N)=O | 13.9%
63 | COCc1cc(C)n(CC(=O)Nc2cccc(C)c2)c(=O)c1C#N | -1.59%
64 | O=c1ccc2c([nH]1)CCCCCCCCCC2 | 5.75%
65 | COc1ccc(C(CNC(=O)c2oc3cc(Br)ccc3c2C)N2CCCCC2)cc1 (stereo not shown) | -9.05%
66 | O=C(COC(=O)c1ccc(O)cc1)Nc1ccc(N2CCCCC2)cc1 | -4%

Row | Compound | hERG current change (%, negative = inhibition) at 10uM
67 | CNC(=O)c1c(NC(=O)c2cccc(N3C(=O)CCC3=O)c2)sc2c1CCCC2 | 5.72%
68 | COc1ccc(CC(=O)Nc2cc(S(=O)(=O)N3CCOCC3)ccc2N2CCOCC2)cc1 | 0.344%
69 | O=C(NCc1ccccc1)N(Cc1nc2ccccc2c(=O)[nH]1)C1CCCC1 | -2.34%
70 | C=CCC(NCc1ccco1)c1ccc(OC)c(OC)c1.Cl (stereo not shown) | 11.8%
71 | O=C1NC(c2cc3ccccc3nc2Cl)Nc2ccccc21 (stereo not shown) | -5.63%
72 | COc1cccc(COC(=O)C2CCN(C(=O)c3ccccc3C)CC2)c1OC | 9.21%
73 | CCOc1ccc(N(CC(=O)NC2CCCC2)C(=O)c2ccc(C)s2)cc1 | -33.6%
74 | C#CCn1c(=NC(=O)c2ccc(S(=O)(=O)N3CCc4ccccc4C3)cc2)sc2cc(S(N)(=O)=O)ccc21 | 8.51%
75 | COc1cc2cc(Oc3ccc4ccc(=O)oc4c3)c(=O)oc2cc1OC1OC(COC(=O)CC(C)(O)CC(=O)O)C(O)C(O)C1O (stereo not shown) | 23.2%
76 | CCN(CC)S(=O)(=O)c1ccc2c(c1)c(=O)c(C(=O)NCc1ccc3c(c1)OCO3)cn2C | -1.08%
77 | Cc1nn(C)cc1CN(C)C(=O)c1nn2c(c1Cl)NC(c1cccs1)CC2C(F)(F)F (stereo not shown) | -17.4%
78 | C/C(N)=C(/C#N)C(=O)CSc1nnc(COc2cc(C)ccc2C)o1 | 17.1%
79 | CCCCOc1ccc(C(=O)OC2CC(C)N(C)CC2C)cc1 (stereo not shown) | -25.4%
80 | O=[N+]([O-])c1nn(-c2ccc3c(c2)OCCO3)n(O)c1=NC1CCCC1 | 19.5%
81 | CCOC(=O)c1cc(-c2nnc(SCC(=O)Nc3ccc(F)cc3)o2)c(C)nc1C | 7.9%
82 | C#CC[N+](C)(C)CCCCCCCCC.[Br-] | -54.9%
83 | O=C(Oc1cccc(OC(=O)c2ccco2)c1)c1ccco1 | 23.7%
84 | CCC(C)[C@@H](C(=O)Nc1ccc(OC)c(OC)c1)N1Cc2ccccc2C1=O (stereo partly shown) | -9.42%
85 | CC(C)NCC(=O)NC12CC3CC(CC(C3)C1)C2.Cl | 4.75%
86 | Cc1nnc(NC(=O)CSc2nnc(Cc3ccccc3)n2Cc2ccccc2)s1 | 0.574%
87 | O=C(CCCCCn1c(=O)[nH]c2ccccc2c1=O)NCCCN1CCN(c2ccccc2F)CC1 | -79.2%
88 | CSc1cc(-c2ccc(Cl)cc2)n(Cc2ccccc2)c(=O)c1C#N | 18%
